From the RNAGym collection of RNA variant scans (doi:10.1093/nar/gkz1192)
The source gives no read counts; variants with many changes may rest on few reads.

B1: CPEB3 Ribozyme (parent)
chain: UAACAGGGGGCCACAGCAGAAGCGUUCACGUCGCAGCCCCUGUCAGAUUCUGGUGAAUCUGCGAAUUCUGCUGUAUAUCUC

Variants of: B1
Experiment: self-cleavage, relative activity (ratio to wild type); higher = more cleavage; in vitro, sequencing
Method in brief: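 Relative activity compares each variant's cleaved/total read fraction with that of the unmutated ribozyme. To get these fractions, barcoded CPEB3 ribozyme libraries from rounds of error-prone PCR were transcribed with T7 RNA polymerase for 5 hours at 37°C and then given 15 min of DNase I treatment before EDTA was added. The RNAs were reverse transcribed with template switching and sequenced on Illumina, and DNA sequencing linked barcodes to variants. A minimum of 5 reads applied, and three batches were averaged.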

Row | Variant | self-cleavage
1 | A15U G16A A56G | 0.52
2 | A15U G16A U43C A56G U80C | 0.44
3 | A15U G16C G22A A56U U58C U72A | 0.12
4 | A15U G16C U31A G42U U58C U72A | 0.11
5 | A15U G16C U54G U58C U72A G73A | 0.06
6 | A15U G16U A18U U41A A57G A64U U80C | 0.17
7 | A15U G16U A20G U43C A56G U80C | 0.39
8 | A15U G16U A28U C39U G53A U69C U78C | 0.06
9 | A15U G16U A47G U80C | 0.64
10 | A15U G16U U31C A64G | 0.08
11 | A15U G16U U48C G61C U66C U76G | 0.01
12 | A15U G19A U25C U54A | 0.26
13 | A15U G19A U58G U66C | 0.15
14 | A15U G19C A20U A28G U43A C44U U80C | 0.05
15 | A15U G19C U74C | 0.21
16 | A15U G19U A21G A57G A64G U69C U72C | 0.06
17 | A15U G19U A28G C40U | 0.12
18 | A15U G19U A45G A47G U48C A56U A64U | 0.03
19 | A15U G19U A57G | 0.13
20 | A15U G19U G24C | 0.28
21 | A15U G22A A45G U51C A57G | 0.14
22 | A15U G22C U74C | 0.13
23 | A15U G22U U67C C68U | 0.12
24 | A15U G24A A45G A47G G52C U67C U80A | 0.06

Row | Variant | self-cleavage
25 | A15U G24A A47C U58C U80G | 0.06
26 | A15U G24A C38A G42A U66C | 0.07
27 | A15U G24A G30U | 0.41
28 | A15U G24A U31C U41C U43C A64U | 0.06
29 | A15U G24A U43C A65G | 0.18
30 | A15U G30A U51A | 0.45
31 | A15U G30A U60A U67C | 0.09
32 | A15U G30A U67C | 0.13
33 | A15U G30A U74C | 0.09
34 | A15U G30C U41A U51A | 0.31
35 | A15U G30U A35C U60A | 0.1
36 | A15U G30U U31A A35U A56G | 0.06
37 | A15U G30U U43A U54A U60A | 0.07
38 | A15U G30U U60A U67C | 0.1
39 | A15U G30U U72A | 0.12
40 | A15U G33A C34U A45G U54C | 0.17
41 | A15U G33A U41A U67C | 0.4
42 | A15U G33A U54A A65U | 0.16
43 | A15U G33A U54C A65G U67C U72C U78C | 0.05
44 | A15U G33A U72C | 0.25
45 | A15U G33C U60C U72C | 0.07
46 | A15U G36A U69C G70A | 0.23
47 | A15U G46U U51C | 0.16
48 | A15U G52A A64G U78A | 0.98

Row | Variant | self-cleavage
49 | A15U G52C G53A U54G A57G U60C | 0.22
50 | A15U G52U U67C | 0.12
51 | A15U G53U A65G | 0.29
52 | A15U G61A U67A | 0.17
53 | A15U G63A A64U U80G | 0.15
54 | A15U G63A U72C | 0.9
55 | A15U G63U A64G A65G U66A | 0.01
56 | A15U G70C U76C U78C | 0.11
57 | A15U G70C U80C | 0.17
58 | A15U G73U U78C | 1.28
59 | A15U U25A A28G U69C | 0.13
60 | A15U U25A A28U U69C | 0.07
61 | A15U U25A A47G | 0.08
62 | A15U U25A U31C A45C G63A | 0.08
63 | A15U U25A U43C | 0.07
64 | A15U U25C A28C U49C U78C | 0.06
65 | A15U U25C A28G A57U U72G U78C | 0.14
66 | A15U U25C A28G C32A C39A U51C | 0.09
67 | A15U U25C A28U A75U | 0.07
68 | A15U U25C A35C U41A A57G | 0.32
69 | A15U U25C A35U C44U U54A A77U | 0.23
70 | A15U U25C A45G C62U | 0.04
71 | A15U U25C A47U U58C U60A U76A | 0.07
72 | A15U U25C A57G | 0.22

Row | Variant | self-cleavage
73 | A15U U25C A64G U67G | 0.09
74 | A15U U25C A64U U72A U78C | 0.08
75 | A15U U25C A65G A77G | 0.1
76 | A15U U25C C39U A47G U49C U51G U54C | 0.15
77 | A15U U25C G30U | 0.09
78 | A15U U25C U26C A45G U78C | 0.25
79 | A15U U25C U26C C59U U66A U69C | 0.15
80 | A15U U25C U26C C62U | 0.2
81 | A15U U25C U26C U60A G70A A77G | 0.07
82 | A15U U25C U31A A35U C39U U41A | 0.05
83 | A15U U25C U31C U69A | 0
84 | A15U U25C U51C U80C | 0.28
85 | A15U U25C U54C U66C U80A | 0.07
86 | A15U U25C U54G A64G | 0.18
87 | A15U U25C U66C U72C | 0.16
88 | A15U U25C U67C | 0.13
89 | A15U U25C U69C | 0.28
90 | A15U U25C U72A | 0.08
91 | A15U U25C U72G | 0.15
92 | A15U U25C U78C | 0.16
93 | A15U U25G U51C A77G U78C | 0.09
94 | A15U U26A A28G U67C | 0.33
95 | A15U U26A A35G U58C | 0.27
96 | A15U U26A A45U | 0.15

Row | Variant | self-cleavage
97 | A15U U26A A47G U72C | 0.47
98 | A15U U26A A57U U72A G73A | 0.7
99 | A15U U26A A64G | 0.26
100 | A15U U26A A64G U67G | 0.13
101 | A15U U26A C27A C68A U72A U78C | 0.1
102 | A15U U26A C34G U60A | 0.07
103 | A15U U26A C38A G42A | 0.2
104 | A15U U26A G30C U31C U69C | 0.07
105 | A15U U26A G33A U43G U67C | 0.04
106 | A15U U26A G36A U43C A45G U66A U67A | 0.34
107 | A15U U26A U31C U51A U66C | 0.16
108 | A15U U26A U31G U41G G70C | 0.04
109 | A15U U26A U43C U69C | 0.15
110 | A15U U26A U54C U60A A65G U78C U80C | 0.28
111 | A15U U26A U60A | 0.29
112 | A15U U26A U69A U72A | 0.1
113 | A15U U26A U72A G73A | 1.27
114 | A15U U26C A28G A45C A47G U60C U69C | 0.11
115 | A15U U26C A28G A45U G46A A56G | 0.07
116 | A15U U26C A35G | 1.03
117 | A15U U26C A35U A65U U80C | 0.12
118 | A15U U26C A45U G53A U60C | 0.09
119 | A15U U26C A47G U58C U60A | 0.18
120 | A15U U26C A56C A57G U69A U72A | 0.13

Row | Variant | self-cleavage
121 | A15U U26C A56G U78A | 0.28
122 | A15U U26C A64G | 0.23
123 | A15U U26C C29U C62U U66C | 0.04
124 | A15U U26C C32U A35C | 0.05
125 | A15U U26C C40U U54A | 0.08
126 | A15U U26C U31C A56G U80A | 0.62
127 | A15U U26C U41A U72A U78A U80C | 0.28
128 | A15U U26C U41C | 0.3
129 | A15U U26C U41C U49C U60A C79U | 0.08
130 | A15U U26C U43A | 0.26
131 | A15U U26C U49G | 0.1
132 | A15U U26C U54A | 0.22
133 | A15U U26C U54C G73A | 0.72
134 | A15U U26C U60A | 0.1
135 | A15U U26C U72A | 0.14
136 | A15U U26G A28G G30A A65U | 0.08
137 | A15U U26G A35C U43C A45G G73A U80C | 0.53
138 | A15U U26G A64G A65U | 0.13
139 | A15U U26G A65U U76A | 0.04
140 | A15U U26G U31A C68A G70A | 0.03
141 | A15U U31A A57C U60C | 0.12
142 | A15U U31A A57U A75G A77U | 0.14
143 | A15U U31A C32U A57G A64G | 0.06
144 | A15U U31A C40G A45U | 0.09

Row | Variant | self-cleavage
145 | A15U U31A C62A A64C | 0.09
146 | A15U U31A G33U G46A U48C | 0.07
147 | A15U U31A G46A U78G | 0.1
148 | A15U U31A U67C | 0.12
149 | A15U U31C A35G U41A U54G | 0.18
150 | A15U U31C A47G U67C | 0.14
151 | A15U U31C A56U | 0.12
152 | A15U U31C A64G U76A | 0
153 | A15U U31C A65G | 0.16
154 | A15U U31C C37U A65G U74C | 0.03
155 | A15U U31C G42A | 0.09
156 | A15U U31C U43G A56G A57G | 0.13
157 | A15U U31C U51C | 0.63
158 | A15U U31C U54A A64G A65G U72C | 0.09
159 | A15U U31C U60A U80C | 0.21
160 | A15U U31C U67C | 0.14
161 | A15U U31C U67C A75G | 0.11
162 | A15U U31G U51A U54C | 0.61
163 | A15U U41A A45G U48C U69A | 0.08
164 | A15U U41A A47G | 0.26
165 | A15U U41A A56U | 0.17
166 | A15U U41A U43A | 0.19
167 | A15U U41A U43C | 0.07
